# Values joined by “and” are separate entries in the source; they are usually repeats but may differ in a detail not shown here. Equal values may be shown once. Among all 110,000 compounds or so, about 230 (0.21%) showed an effect of 50% or more. Some of the results follow.
# Biological target: DPAP1 (Plasmodium falciparum, UniProt Q8IIJ9)
# Test: primary screen, percent inhibition; read by cleavage of a fluorogenic dipeptide substrate; higher = more effect of the substance
# Set-up: species or system P. falciparum D10 trophozoite lysates; single well
# 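Also: 30 min substrate incubation versus DMSO and 10 µM JCP410 controls.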
# Chain of DPAP1 (Q8IIJ9 whole entry, looked up): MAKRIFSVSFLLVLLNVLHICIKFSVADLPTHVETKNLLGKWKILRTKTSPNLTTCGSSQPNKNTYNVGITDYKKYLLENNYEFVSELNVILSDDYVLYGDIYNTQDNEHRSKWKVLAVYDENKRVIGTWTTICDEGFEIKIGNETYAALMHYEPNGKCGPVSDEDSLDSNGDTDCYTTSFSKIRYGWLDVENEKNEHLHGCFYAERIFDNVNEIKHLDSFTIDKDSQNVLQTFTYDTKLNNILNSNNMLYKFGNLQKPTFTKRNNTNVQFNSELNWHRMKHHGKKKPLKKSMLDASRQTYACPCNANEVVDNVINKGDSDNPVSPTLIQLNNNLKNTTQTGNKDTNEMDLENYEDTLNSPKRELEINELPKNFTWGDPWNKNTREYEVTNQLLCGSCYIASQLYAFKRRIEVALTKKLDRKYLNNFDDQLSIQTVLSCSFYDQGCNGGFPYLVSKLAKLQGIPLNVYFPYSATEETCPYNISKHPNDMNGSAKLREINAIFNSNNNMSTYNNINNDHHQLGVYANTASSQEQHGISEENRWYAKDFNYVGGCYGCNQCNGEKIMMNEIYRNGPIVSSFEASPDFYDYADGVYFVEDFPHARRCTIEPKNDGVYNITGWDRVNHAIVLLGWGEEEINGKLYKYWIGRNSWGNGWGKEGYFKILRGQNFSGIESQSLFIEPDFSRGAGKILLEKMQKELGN
row,Compound,% Inhibition @ 10 uM
1,CC(C)CCNC(=O)C1c2ccccc2C(=O)N(C)C1c1cn(C)c2ccccc12 (stereo not drawn),-4.53%
2,CCOC(=O)c1c(NC(=O)CSCc2nc(C)cc(C(F)(F)F)n2)sc2c1CCCCC2,2.8%
3,COc1ccc(-c2noc(N3CCCC(C(=O)NCCC4=CCCCC4)C3)n2)cc1 (stereo not drawn),4.41%
4,Cc1ccc(C(=N)NOC(=O)c2ccc3c(c2)OCO3)n1C,0.9%
5,COc1ccc(NCc2cc(F)ccc2F)cc1,0.273%
6,Cc1cc(F)ccc1NCc1cccnc1,-4.18%
7,CC(C)CCNC(=O)c1cc2c(O)nc3ccccc3c2s1,4.51%
8,Cc1c(Cl)cccc1N(CC(=O)N1CCN(C)CC1)S(=O)(=O)c1ccccc1,-4.82%
9,O=C(NC1CC1)c1ccc(C2SCC(=O)N2CCc2ccccc2)cc1 (stereo not drawn),0.843%
10,Fc1ccccc1COc1ccc(Cl)cc1CNCC1CCCO1 (stereo not drawn),-3.45%
11,Cc1ccc(C(=O)C2=C(O)C(=O)N(CCc3ccccc3)C2c2ccncc2)cc1 (stereo not drawn),-5.54%
12,CCc1nc2sc3c(c2c2nnc(C)n12)CCCC3,-2.59%
13,CSCC[C@@H](C(=O)O)N1Cc2ccccc2C1=O,0.708%
14,O=C(O)CN1C(=O)C2C3c4ccccc4C(c4ccccc43)C2C1=O (stereo not drawn),-5.28%
15,CO/C(O)=C1\C(C)=NC2=C(C(=O)c3ccccc32)C1c1ccc(-c2ccc(Cl)cc2)o1 (stereo not drawn),-3.14%
16,CCc1ccc2occ(CC(=O)N(Cc3ccc(C(C)C)cc3)C3CCS(=O)(=O)C3)c2c1 (stereo not drawn),-4.19%
17,O=C(Cc1ccc(Cl)cc1)Nc1nc2ccccc2s1,2.02%
18,O=C(c1nc2nc(-c3ccccc3)cc(C(F)(F)F)n2n1)N1CCCCC1,1.87%
19,COc1ccc(S(=O)(=O)Nc2ccc3c(c2)OCO3)cc1,-2.74%
20,CC(C)C[C@H](NC(=O)c1cccc(-c2ccc(S(=O)(=O)N3CCCC3)s2)c1)C(=O)NCC#N,1.35%
21,CC1=C(C(=O)OCc2ccc3c(c2)OCO3)C(c2c(F)cccc2Cl)CC(=O)N1 (stereo not drawn),-0.472%
22,Cc1cccc(-c2ccc(C(=O)N[C@@H](CC(C)C)C(=O)NCC#N)cc2)c1C,-8.26%
23,COc1ccc(CNC(=O)CCn2c(=S)[nH]c3c([nH]c4ccc(OC)cc43)c2=O)cc1,-9.6%
24,CCCC1=C(C(=O)OCC)C(c2ccc(SC)cc2)C(C#N)=C(N)O1 (stereo not drawn),-3.13%
25,COc1cccc(CN2CCN(Cc3cccc(C)c3)CC2)c1OC,-4.16%

row,Compound,% Inhibition @ 10 uM
1,CCn1c(C(=O)O)c(CNC2CCC(C)CC2)c2ccccc21 (stereo not drawn),0.277%
2,CN(C)Cc1cc(CN(C)C)c(O)c(-c2ccccc2)n1,0.986% and -1.86%
3,Clc1cccc(OCCCCCN2CCCC2)c1,1.29%
4,COC(=O)c1cn(C(=O)/C=C/c2ccccc2)c2ccccc12,-4.51%
5,CCCc1ccc(OCC(=O)Nc2ccc(OC)cc2)cc1,-2.66%
6,CC1=C(C(=O)Nc2ccc(Cl)cc2)C(c2ccccc2)NC(S)=N1 (stereo not drawn),-7.54%
7,O=C(Nc1ccc(Cl)cc1)c1c(O)nc2ccccc2c1O,-3.16%
8,Cc1ccnc(NS(=O)(=O)c2ccc(C(C)(C)C)cc2)c1,-2.66%
9,CCCSc1nc(O)cc(=O)n1C,-7.02%
10,CC1(C)CC(=O)C2=C(C1)OC(N)=C(C#N)C2(C(F)(F)F)C(F)(F)F,2.46%
11,Cc1c(C(=O)NCCc2ccccc2)oc2ccc3c(c12)C(=O)CC1(CCCC1)O3,3.87%
12,COc1cccc(C2CC(c3c(O)cc(C)oc3=O)=NCCS2)c1O (stereo not drawn),-3.62%
13,CCOc1ccc2[nH]c3ccc4nonc4c3c2c1,1.54%
14,CC1CCC(N2CCC(O)CC2)CC1 (stereo not drawn),-0.0908%
15,CCOc1cc(C2C(C(=O)OC)=CNC=C2C(=O)OC)ccc1O,-3.14%
16,Fc1ccc(-c2noc3ncnc(N4CCc5ccccc5C4)c23)cc1,3.26%
17,CCc1ccc(-n2c(C)cc(/C=C3\C(=N)N4N=C(N5CCOCC5)SC4=NC3=O)c2C)cc1,0.0579%
18,CC/C(=N\c1cccc2ccccc12)C1=C(O)CCCC1=O,0.674%
19,O=C(Cn1ncc2c3ccccc3nc-2c1O)N1CCC(c2ccccc2)C1 (stereo not drawn),2.36%
20,N#CCNC(=O)[C@H](CSc1ccccc1)NC(=O)OCc1ccccc1,2.86%
21,COC(=O)C1=C(C)N(C)C(C)=C(C(=O)OC)C1c1ccc(C)s1,5.55%
22,CCOc1ccccc1N(CC(=O)Nc1ccc(Br)cc1)S(C)(=O)=O,-3.77%
23,CCc1ccc(CN(C(=O)c2ccccc2OC)C2CCS(=O)(=O)C2)cc1 (stereo not drawn),-5%
24,FC(F)(F)c1cccc2c1[nH]c1nc3ccccc3nc12,3.73%
25,Cc1ccccc1Cn1c(C(O)c2ccccc2)nc2ccccc21 (stereo not drawn),2.73%

row,Compound,% Inhibition @ 10 uM
1,O=C(O)c1cccc(-c2ccc(/C=C3\SC(=S)N(C4CCCCC4)C3=O)o2)c1,7.85%
2,COc1ccc(-c2cc(C(F)(F)F)n3nc(C(=O)NCCCN4CCOCC4)c(Cl)c3n2)cc1,1.58%
3,CCOc1ccc2nc(SCC(=O)c3ccc(OC)cc3)sc2c1,1.13%
4,N#CC1=C(N)Oc2c(oc(CO)cc2=O)C1c1ccc(Br)s1 (stereo not drawn),0.726%
5,C/C(Cl)=C/Cn1c(N2CCOCC2)nc2c1c(=O)[nH]c(=O)n2C,-1.2%
6,COc1cccc(COC(=O)N[C@@H](CC2CCCCC2)C(=O)NCC#N)c1,-0.214%
7,CNc1nsc(C(=O)c2ccc(F)cc2)c1N,0.0719%
8,CCCCOc1ccc(-c2ncc([N+](=O)[O-])cn2)cc1,-0.239%
9,COc1cccc(C2CC(c3ccc(OC)c(OC)c3OC)n3nnnc3N2)c1 (stereo not drawn),-3.37%
10,Cc1nc(SCC(=O)NCc2ccccc2)c(C#N)c(C)c1Cl,1.03%
11,CC(C)C[C@@H](C#N)NC(=O)[C@H](CC1CCCCC1)NC(=O)OCc1ccccc1,0.174%
12,CC1CN(Cc2cccc(Br)c2)CC(C)O1 (stereo not drawn),0.827%
13,COc1cc2nc(SCC(=O)c3ccccc3)n3nc(C)nc3c2cc1OC,2.9%
14,Cc1ccc(Cl)cc1N1CCN(C(=O)CN(c2ccc(F)cc2)S(C)(=O)=O)CC1,24.4%
15,CS(=O)(=O)N(CC(=O)N1CCN(c2ccccc2F)CC1)Cc1ccccc1,-3.71%
16,O=C(O)c1ccccc1/C=C\c1ccsc1,6.4%
17,CN1C(=O)C(=Cc2cccn2-c2nnc(-c3ccccc3)s2)C(=O)N(C)C1=O,5.1%
18,O=C(O)[C@H]1CCCC[C@H]1C(=O)NCCC1=CCCCC1,-11.9%
19,CCCC(=O)c1c(NC(C)C)cc(C)oc1=O,-0.192%
20,COc1cc(C2=N/C(=C\c3cccnc3)C(=O)O2)cc(OC)c1OC,-1.87%
21,Cc1nc2c(C(=O)NC3CCCCC3C)cnn2c(C)c1Cc1cccc(Br)c1 (stereo not drawn),1.27%
22,COc1ccc(C(=O)c2c(N)c(C#N)c(C)n2-c2ccccc2)cc1,-0.712%
23,CCOc1ccc(-n2cc3c(c2-c2ccccc2Cl)c(=O)n(C)c(=O)n3C)cc1,2.02%
24,c1ccc(-c2nc3cc(Oc4ccc5[nH]c(-c6ccccn6)nc5c4)ccc3[nH]2)nc1,-2.92%
25,COc1cc(CN2CCN(c3cccc(C)c3C)CC2)cc(Br)c1O,0.847%

row,Compound,% Inhibition @ 10 uM
1,CN1CCC/C1=N/C(=S)CN1CCCC1=S,13%
2,O=C1NCCCC[C@@H]1NC1CCN(Cc2ccccc2)CC1,-3.6%
3,CCOc1ccc(S(=O)(=O)N(CC(=O)N2CCc3ccccc3C2)c2ccccc2)cc1,-1.38%
4,CC(C)CCNC(=O)Cn1cc(C=O)c2ccccc21,-2.72%
5,CCCOc1ccccc1C(=O)N(Cc1ccc(C)cc1)Cc1ccco1,4.47%
6,CN(C)CCN(C)Cc1ccc(Br)cc1,0.827%
7,C=CCSc1nc2c(c(=O)n(C)c(=O)n2C)n1Cc1ccc(Cl)cc1,-2.16%
8,COc1c(Cl)cc(Cl)cc1/C=N/C(=O)CC#N,1.25%
9,COc1ccc(C2CC(C(F)(F)F)n3ncc(C(=O)N(C)CCC#N)c3N2)cc1OC (stereo not drawn),-2.22%
10,O=C(NCc1ccc2c(c1)OCO2)c1cc2c(s1)CS(=O)(=O)C2,-11.6%
11,O=C(Nc1ccccc1)Nc1cc(Cl)ccc1Cl,-5.68%
12,Cc1ccc(C(=O)N/C(=C\c2ccco2)C(=O)N2CCOCC2)cc1C,4.09%
13,CC(C)c1cc(C(C)C)c(S(=O)(=O)Nc2cccc(F)c2)c(C(C)C)c1,-2.55%
14,CCN(Cc1ccccc1)C(=O)c1cnc2ccc(S(=O)(=O)N(C)CCC#N)cc2c1O,3.04%
15,O=C(Nc1cccc2cccnc12)c1ccc(C(F)(F)F)cc1,1.39%
16,CCn1cc(C(=O)Nc2ccccc2C(=O)c2ccccc2)cn1,-4.18%
17,Cc1cc(C)n2nc(CNS(=O)(=O)c3ccc(C(C)(C)C)cc3)nc2n1,-5.81%
18,CCCOc1ccc(C(CC(=O)O)NC(=O)C23CC4CC(CC(C4)C2)C3)cc1 (stereo not drawn),-0.703%
19,O=C(Nc1nc(C23CC4CC(CC(C4)C2)C3)cs1)C(c1ccccc1)c1ccccc1,0.962%
20,COc1ccccc1/N=C1\SC(C(=O)Nc2cccc(Cl)c2)CC(=O)N1C (stereo not drawn),-7.69%
21,CCN(CC)CC(C)CNC(=O)c1oc2ccc(S(=O)(=O)N3CC(C)CC(C)C3)cc2c1C (stereo not drawn),2.05%
22,O=C(/C=C/c1cccc(Cl)c1)c1ccccc1,-0.519%
23,C=CCc1cc(/C=C2/C(=N)N3OC(C)=CC3=NC2=O)cc(OC)c1OCCOc1ccc(C)cc1,0.317%
24,CCCCN(C)CCNC(=O)CN1N=C(c2ccccc2)CCC1=O,2.18%

# From publication PMC6919601, “Identification of Plasmodium dipeptidyl aminopeptidase allosteric inhibitors by high throughput screening” (PLoS ONE, 2019)
